# In all, about 310,000 compounds went through this assay and about 14,000 (4.5%) showed an effect of 50% or more. Effects have a minus sign here. The list shows a part of the results.
# Molecular target: human ether-à-go-go-related gene (hERG) potassium channel (human, UniProt Q12809)
# Assay: primary screen, population patch clamp on CHO cells stably expressing hERG
# 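Note: peak tail current of the secondary pulse compared with the same well before compound.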
# human ether-à-go-go-related gene (hERG) potassium channel, sequence (Q12809 whole entry, looked up): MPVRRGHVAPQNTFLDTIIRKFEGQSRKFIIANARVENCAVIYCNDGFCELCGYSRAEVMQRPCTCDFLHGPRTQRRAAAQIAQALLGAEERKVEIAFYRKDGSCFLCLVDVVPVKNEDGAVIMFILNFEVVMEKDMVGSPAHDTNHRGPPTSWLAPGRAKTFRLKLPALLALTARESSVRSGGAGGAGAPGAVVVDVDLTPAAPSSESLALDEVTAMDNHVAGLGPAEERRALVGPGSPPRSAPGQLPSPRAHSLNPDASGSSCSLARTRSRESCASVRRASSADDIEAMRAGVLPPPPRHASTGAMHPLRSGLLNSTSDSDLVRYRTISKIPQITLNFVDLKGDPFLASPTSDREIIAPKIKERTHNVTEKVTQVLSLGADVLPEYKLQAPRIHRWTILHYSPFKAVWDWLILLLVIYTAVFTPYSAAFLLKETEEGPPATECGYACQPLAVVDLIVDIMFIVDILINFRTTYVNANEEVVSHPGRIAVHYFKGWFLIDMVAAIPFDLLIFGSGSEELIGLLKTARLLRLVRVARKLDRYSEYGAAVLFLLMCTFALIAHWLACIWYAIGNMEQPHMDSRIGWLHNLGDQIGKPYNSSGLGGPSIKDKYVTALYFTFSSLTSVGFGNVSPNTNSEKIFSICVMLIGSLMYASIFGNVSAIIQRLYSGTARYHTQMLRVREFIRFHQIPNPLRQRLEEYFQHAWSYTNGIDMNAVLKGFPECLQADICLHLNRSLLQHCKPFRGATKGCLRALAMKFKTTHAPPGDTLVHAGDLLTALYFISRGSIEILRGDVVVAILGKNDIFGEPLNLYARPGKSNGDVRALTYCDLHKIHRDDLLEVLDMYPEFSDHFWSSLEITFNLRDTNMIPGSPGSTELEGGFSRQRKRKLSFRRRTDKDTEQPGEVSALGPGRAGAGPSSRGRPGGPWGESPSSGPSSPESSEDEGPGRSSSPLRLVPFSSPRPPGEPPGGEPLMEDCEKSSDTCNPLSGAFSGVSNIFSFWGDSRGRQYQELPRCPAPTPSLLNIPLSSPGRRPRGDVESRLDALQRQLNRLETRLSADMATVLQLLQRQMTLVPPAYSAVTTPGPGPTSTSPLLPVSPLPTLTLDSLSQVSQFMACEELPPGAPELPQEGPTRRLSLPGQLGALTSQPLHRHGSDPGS
row,Structure (SMILES),"hERG current change (%, negative = inhibition) at 10uM"
1,C=CCN1C(=O)CSc2ccc(C(=O)NCCC3=CCCCC3)cc21,-27.6%
2,COc1ccc(C)c2sc(=NC(=O)c3ccc(C(C)=O)cc3)n(C)c12,8.45%
3,COc1ccc(C(C(=O)NC2CCCC2)N(Cc2cccs2)C(=O)c2ccn[nH]2)cc1OC (stereo not drawn),20.3%
4,O=C(CCCc1ccccc1)c1ccccc1,18.5%
5,COc1ccc(N2CCN(Cc3cc(=O)oc4ccc(C)cc34)CC2)cc1,2.14%
6,CS(=O)(=O)N(Cc1ccccc1)c1ccc(C(=O)NC2CCCCC2O)cc1 (stereo not drawn),-9.19%
7,O=C(NCc1ccc2c(c1)OCO2)c1cc(-c2ccccc2)c(N2CCOCC2)s1,-0.82%
8,Cc1cc(C(=O)N2CCN(S(=O)(=O)c3ccccc3)CC2)c(C)o1,5.6%
9,Cc1cccc(-c2nn(-c3ccccc3)cc2C(=O)N(C)CC(=O)Nc2ccc(N3CCOCC3)cc2)c1,24.2%
10,O=c1cc(CSc2nnc(COc3ccc(Cl)cc3)o2)c2ccccc2[nH]1,-9.67%
11,Cc1ccc(S(=O)(=O)Nn2c(O)c(C=C3N=c4ccccc4=N3)sc2=S)cc1,3.52%
12,Cc1onc(-c2ccccc2Cl)c1C(=O)NC(C)c1ccccc1 (stereo not drawn),-4.38%
13,CCc1nc2ccc(C(=O)N3CCN(c4cccc(OC)c4)CC3)cc2nc1CC,-8.19%
14,O=C(COc1ccccc1)N1CCCCCCC1,3.25%
15,Cc1nnc(SCc2ccc3c(c2)OCO3)s1,-12.7%
16,O=C(O)C(=O)O.OCCN1CCN(c2cc(-c3ccccc3)c3ccccc3n2)CC1,-63.3%
17,COc1cc(C(=O)Nc2ccc3c(c2)OCCO3)ccc1OC(C)C,-16.8%
18,CC(C(=O)OCC(=O)c1ccc(Br)cc1)N1C(=O)C2C3CCC(C3)C2C1=O (stereo not drawn),-40.4%
19,NC(=O)c1ccc(NC(=S)NCc2ccco2)cc1,5.61%
20,Cl.OC(CN1CC=C(/C=C/c2ccc(Br)cc2)CC1)c1ccccc1 (stereo not drawn),-2.33%
21,O=c1c2cc(-c3ccccc3)sc2ncn1-n1cccc1,3.9%
22,COc1ccc(-n2cc(CNCc3cnc4ccccn34)c(-c3cccc(F)c3)n2)cc1,-30.2%
23,O=C(CCl)N(Cc1ccccc1)c1ccccc1,3.18%
24,CCN1CCCC1Cn1cnc2c([nH]c3ccc(C)cc32)c1=O (stereo not drawn),-70%

# Source: paper PMC4336329 (PLoS ONE, 2015)
